Laboratory results: publication PMC7250871
These are yes or no findings as the source states them, for the method shown. For part of these data: In cells and extracts the contact can be indirect. Some results given as binding are weak or reduced against the parent protein; the word gives no strength. Tags and fused reporters may be left off the sequences shown. Values belong to the binder of their own block, whether it stands above or below them.

Chains of the proteins cited; added tags and fusions are not shown.
UniProt Q7LBC6: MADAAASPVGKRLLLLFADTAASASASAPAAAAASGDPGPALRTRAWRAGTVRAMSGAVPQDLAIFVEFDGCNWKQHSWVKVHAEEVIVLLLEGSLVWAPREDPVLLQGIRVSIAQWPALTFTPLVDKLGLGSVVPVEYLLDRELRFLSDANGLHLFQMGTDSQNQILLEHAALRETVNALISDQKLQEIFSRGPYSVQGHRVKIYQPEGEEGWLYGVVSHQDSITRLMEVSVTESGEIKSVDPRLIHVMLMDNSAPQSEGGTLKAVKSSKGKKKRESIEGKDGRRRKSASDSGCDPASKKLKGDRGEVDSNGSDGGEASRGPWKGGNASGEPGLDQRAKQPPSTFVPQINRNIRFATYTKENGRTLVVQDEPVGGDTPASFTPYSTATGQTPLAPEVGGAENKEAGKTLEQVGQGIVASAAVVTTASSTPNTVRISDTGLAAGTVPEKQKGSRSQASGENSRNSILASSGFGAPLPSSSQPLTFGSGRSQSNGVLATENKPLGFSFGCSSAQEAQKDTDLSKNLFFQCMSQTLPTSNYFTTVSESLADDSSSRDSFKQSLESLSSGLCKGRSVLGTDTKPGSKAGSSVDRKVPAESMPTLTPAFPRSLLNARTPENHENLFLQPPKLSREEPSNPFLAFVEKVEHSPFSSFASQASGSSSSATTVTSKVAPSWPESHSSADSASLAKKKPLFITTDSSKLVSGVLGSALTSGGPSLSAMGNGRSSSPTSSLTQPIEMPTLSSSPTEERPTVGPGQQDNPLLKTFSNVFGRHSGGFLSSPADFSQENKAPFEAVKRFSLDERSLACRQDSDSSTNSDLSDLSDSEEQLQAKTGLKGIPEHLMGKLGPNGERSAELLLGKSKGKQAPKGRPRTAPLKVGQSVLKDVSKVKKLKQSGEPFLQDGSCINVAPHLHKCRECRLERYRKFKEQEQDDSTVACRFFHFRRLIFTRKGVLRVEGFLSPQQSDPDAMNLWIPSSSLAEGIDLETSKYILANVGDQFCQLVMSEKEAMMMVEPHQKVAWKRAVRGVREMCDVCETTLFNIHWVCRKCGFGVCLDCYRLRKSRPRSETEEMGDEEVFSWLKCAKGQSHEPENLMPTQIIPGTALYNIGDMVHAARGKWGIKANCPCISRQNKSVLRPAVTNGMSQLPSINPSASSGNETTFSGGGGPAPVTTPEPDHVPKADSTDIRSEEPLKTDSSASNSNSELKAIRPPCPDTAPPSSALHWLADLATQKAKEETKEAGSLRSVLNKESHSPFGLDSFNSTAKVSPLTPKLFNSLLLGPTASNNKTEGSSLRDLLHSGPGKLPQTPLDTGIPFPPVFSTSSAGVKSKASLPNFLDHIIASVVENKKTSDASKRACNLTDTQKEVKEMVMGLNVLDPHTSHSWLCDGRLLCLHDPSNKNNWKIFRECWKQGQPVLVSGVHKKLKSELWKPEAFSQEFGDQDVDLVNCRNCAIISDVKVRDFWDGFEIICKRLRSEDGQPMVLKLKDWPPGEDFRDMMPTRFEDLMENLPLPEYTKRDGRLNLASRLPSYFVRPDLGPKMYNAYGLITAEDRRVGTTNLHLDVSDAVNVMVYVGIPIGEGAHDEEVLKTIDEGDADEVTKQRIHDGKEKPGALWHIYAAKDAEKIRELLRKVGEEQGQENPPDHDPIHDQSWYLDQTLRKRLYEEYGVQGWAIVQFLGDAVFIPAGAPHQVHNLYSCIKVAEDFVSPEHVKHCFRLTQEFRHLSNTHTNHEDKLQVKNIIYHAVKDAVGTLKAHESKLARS
UniProt O75151: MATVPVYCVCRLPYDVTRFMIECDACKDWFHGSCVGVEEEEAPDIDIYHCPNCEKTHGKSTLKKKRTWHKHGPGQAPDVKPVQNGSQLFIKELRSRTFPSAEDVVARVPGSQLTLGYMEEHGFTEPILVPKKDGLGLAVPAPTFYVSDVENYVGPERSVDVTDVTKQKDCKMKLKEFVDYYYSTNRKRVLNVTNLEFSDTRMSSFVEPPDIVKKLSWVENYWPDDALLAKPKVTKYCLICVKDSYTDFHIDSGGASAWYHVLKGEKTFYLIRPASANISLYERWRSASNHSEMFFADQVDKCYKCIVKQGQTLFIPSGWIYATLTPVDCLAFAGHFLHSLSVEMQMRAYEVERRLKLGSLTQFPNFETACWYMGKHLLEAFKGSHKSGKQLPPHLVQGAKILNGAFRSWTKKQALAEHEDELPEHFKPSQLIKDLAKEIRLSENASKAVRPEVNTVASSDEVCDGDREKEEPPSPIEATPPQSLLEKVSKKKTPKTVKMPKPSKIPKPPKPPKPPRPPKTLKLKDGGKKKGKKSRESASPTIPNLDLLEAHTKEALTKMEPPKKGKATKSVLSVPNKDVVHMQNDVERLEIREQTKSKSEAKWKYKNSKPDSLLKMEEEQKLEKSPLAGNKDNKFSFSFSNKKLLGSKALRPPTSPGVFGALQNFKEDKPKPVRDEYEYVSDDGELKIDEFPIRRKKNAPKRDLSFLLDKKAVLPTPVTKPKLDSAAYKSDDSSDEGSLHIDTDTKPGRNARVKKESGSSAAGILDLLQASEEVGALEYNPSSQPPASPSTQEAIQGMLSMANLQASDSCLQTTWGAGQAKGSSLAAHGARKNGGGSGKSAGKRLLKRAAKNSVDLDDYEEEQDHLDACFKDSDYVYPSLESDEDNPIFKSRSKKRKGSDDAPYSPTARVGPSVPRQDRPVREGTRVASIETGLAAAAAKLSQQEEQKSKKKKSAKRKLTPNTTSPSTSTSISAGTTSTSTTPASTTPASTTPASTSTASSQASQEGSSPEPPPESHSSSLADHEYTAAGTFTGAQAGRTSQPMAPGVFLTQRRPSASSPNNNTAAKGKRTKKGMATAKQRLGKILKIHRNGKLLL
UniProt O15550: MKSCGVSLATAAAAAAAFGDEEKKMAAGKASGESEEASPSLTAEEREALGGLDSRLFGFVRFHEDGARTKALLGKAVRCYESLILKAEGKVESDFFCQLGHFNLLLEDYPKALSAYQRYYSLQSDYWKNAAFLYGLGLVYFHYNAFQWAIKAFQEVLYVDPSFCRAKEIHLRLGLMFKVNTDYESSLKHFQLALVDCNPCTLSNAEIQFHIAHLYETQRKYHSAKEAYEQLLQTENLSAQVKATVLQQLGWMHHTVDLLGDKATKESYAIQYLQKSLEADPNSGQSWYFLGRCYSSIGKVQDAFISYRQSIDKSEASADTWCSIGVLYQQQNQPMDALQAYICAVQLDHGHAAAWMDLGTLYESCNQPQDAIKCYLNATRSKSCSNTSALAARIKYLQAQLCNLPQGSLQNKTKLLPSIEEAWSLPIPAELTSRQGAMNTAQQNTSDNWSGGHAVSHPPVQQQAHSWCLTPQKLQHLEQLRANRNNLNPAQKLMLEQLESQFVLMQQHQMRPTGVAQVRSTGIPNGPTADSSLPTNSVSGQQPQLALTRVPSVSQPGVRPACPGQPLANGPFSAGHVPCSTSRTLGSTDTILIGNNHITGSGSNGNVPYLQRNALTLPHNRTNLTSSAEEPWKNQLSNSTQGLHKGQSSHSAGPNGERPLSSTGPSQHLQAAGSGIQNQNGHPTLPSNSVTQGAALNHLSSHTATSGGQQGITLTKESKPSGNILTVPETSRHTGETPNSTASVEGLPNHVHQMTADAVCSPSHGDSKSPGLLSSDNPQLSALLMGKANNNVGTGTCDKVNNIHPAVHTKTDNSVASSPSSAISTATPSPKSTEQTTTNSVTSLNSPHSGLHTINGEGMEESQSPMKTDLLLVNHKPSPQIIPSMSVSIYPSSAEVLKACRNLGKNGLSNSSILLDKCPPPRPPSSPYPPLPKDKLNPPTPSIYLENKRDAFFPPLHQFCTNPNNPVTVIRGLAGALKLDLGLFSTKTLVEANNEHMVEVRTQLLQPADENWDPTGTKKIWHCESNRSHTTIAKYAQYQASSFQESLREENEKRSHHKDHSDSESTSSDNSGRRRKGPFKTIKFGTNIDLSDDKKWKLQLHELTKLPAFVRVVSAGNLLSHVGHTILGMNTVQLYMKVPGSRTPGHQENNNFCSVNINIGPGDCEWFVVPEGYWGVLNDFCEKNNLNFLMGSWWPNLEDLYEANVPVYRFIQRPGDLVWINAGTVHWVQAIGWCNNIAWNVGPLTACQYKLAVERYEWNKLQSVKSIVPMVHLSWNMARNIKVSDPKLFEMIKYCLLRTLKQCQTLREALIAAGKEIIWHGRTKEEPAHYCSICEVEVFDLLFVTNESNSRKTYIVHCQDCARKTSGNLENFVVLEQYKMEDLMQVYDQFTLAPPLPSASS

Experiments:
[1] = target: T1, Flag-tagged MDFI (MyoD family inhibitor) (UniProt Q99750); assay: co-IP; reverse order: coexpression in 293T cells; anti-Flag immunoprecipitation followed by anti-HA blotting
T1 sequence: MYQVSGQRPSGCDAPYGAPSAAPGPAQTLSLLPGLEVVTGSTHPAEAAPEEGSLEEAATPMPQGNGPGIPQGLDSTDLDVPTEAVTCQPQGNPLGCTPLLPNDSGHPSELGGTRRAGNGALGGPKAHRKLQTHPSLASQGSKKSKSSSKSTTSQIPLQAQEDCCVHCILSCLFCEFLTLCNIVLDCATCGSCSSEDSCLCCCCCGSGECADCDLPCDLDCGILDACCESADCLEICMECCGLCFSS

[2] = target: T2, Flag-tagged MDFIC (MyoD family inhibitor domain-containing) (UniProt Q9P1T7); assay: as above
T2 sequence: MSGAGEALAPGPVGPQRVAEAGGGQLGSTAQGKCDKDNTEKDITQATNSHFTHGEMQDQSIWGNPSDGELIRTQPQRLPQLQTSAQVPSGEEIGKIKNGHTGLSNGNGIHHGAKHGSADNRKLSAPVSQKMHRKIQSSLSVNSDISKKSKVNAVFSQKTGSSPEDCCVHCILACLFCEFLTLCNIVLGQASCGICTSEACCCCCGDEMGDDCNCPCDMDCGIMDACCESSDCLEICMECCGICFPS

GST-MDFI = target: T3, GST-MDFI (UniProt Q99750); assay: pull-down; GST fusion proteins bound to glutathione agarose, challenged with purified Flag-6His-JMJD1A; bound JMJD1A revealed by anti-Flag Western blotting; both purified
T3 sequence: T1 sequence

GST-MDFIC = target: T4, GST-MDFIC (UniProt Q9P1T7); assay: as above
T4 sequence: T2 sequence

[3] = target: T5, HA-tagged JMJD1A (Jumonji C domain-containing 1A) (UniProt Q9Y4C1); assay: co-IP; coexpression in 293T cells; anti-HA immunoprecipitation, coprecipitated Flag-tagged protein detected by anti-Flag blotting
T5 sequence: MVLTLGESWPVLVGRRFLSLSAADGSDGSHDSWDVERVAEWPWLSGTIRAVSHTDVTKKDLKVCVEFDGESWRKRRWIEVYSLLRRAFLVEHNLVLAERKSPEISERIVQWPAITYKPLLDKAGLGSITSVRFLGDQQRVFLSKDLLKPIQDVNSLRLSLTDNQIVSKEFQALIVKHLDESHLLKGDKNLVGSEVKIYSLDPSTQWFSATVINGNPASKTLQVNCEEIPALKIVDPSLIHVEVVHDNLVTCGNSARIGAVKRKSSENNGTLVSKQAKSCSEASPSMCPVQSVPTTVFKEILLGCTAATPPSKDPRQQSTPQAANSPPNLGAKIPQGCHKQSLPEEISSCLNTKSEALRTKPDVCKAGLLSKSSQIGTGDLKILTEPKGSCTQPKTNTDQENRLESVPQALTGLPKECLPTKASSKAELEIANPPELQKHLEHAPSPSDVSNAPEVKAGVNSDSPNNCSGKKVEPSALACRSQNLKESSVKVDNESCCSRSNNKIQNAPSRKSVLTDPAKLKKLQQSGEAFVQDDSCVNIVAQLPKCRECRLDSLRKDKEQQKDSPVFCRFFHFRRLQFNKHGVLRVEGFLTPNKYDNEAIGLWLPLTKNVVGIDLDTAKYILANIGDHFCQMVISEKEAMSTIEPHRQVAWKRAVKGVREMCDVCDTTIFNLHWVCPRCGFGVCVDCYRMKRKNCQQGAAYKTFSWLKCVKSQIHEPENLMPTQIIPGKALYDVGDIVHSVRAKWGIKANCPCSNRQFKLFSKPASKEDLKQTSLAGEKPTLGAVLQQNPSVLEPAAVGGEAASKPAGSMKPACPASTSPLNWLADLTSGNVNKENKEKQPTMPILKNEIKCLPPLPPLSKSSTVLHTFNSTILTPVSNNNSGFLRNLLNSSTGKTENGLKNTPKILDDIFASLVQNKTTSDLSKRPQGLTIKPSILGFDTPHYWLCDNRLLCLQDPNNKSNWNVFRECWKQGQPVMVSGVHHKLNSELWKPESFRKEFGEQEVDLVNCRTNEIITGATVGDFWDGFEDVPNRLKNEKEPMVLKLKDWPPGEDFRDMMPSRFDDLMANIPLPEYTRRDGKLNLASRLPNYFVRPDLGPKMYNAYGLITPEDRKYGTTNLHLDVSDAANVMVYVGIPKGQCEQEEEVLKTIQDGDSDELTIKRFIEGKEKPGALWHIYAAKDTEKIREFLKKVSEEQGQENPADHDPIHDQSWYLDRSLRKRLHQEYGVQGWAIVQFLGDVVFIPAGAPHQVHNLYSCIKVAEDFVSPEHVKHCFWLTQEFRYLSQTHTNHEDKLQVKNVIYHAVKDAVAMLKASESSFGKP

HA-tagged JMJD1B = HA-tagged JMJD1B (UniProt Q7LBC6); assay: as above
HA-tagged PHF2 = HA-tagged PHF2 (UniProt O75151); assay: as above
HA-tagged UTX = HA-tagged UTX (UniProt O15550); assay: as above

binding [1]: binds
binding [2]: binds
B1: HA-tagged JMJD1A (Jumonji C domain-containing 1A) (protein, UniProt Q9Y4C1 1-1321)
chain: T5 sequence

binding (GST-MDFI): binds
binding (GST-MDFIC): binds
B2: Flag-6His-JMJD1A (protein, UniProt Q9Y4C1 1-1321)
chain: T5 sequence

binding [3]: binds
B3: Flag-tagged MDFIC (MyoD family inhibitor domain-containing) (protein, UniProt Q9P1T7 1-246)
chain: T2 sequence

binding [3]: binds
binding (HA-tagged JMJD1B): no binding
binding (HA-tagged PHF2): no binding
binding (HA-tagged UTX): no binding
B4: Flag-tagged MDFI (MyoD family inhibitor) (protein, UniProt Q99750 1-246)
chain: T1 sequence
